According to the supplement of paper PMC5655136:
Values come from read counts of a selection and are noisy.

System: NB7
Test: fold depletion of shRNA, plasmid library share / infected cells without Dox share (9 days) (ratio); higher = more depleted after infection (more toxic, leaky expression from a Tet-inducible vector; NB7 is a neuroblastoma line without caspase-8)
[1] = shRNA pool: CD95 ORF + CD95 3'UTR + Venus libraries
[2] = shRNA pool: CD95L ORF + CD95L 3'UTR + Venus libraries
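Note: shRNA barcodes quantified by deep sequencing of PCR amplicons from cellular DNA, counts expressed as percent of each subpool, ratio averaged over two biological duplicates.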

CAAAAAAGCCAATCTTTGTAC
fold depletion of shRNA [1]: 1.02

CAAAAAATACTTAATAGTCCA
fold depletion of shRNA [1]: 0.964

CAAAACTACCTACTTCTTTCT
fold depletion of shRNA [1]: 0.895

CAAAAGGCAAGACTGCCCTTA
fold depletion of shRNA [1]: 1.66

CAAAAGTGTTAATGCCCAAGT
fold depletion of shRNA [1]: 1.55

CAAAATAGATGAGATCAAGAA
fold depletion of shRNA [1]: 0.861

CAAAATGTCTGTAGCTCCTCA
fold depletion of shRNA [2]: 1.41

CAAACATGGAAATATCACCAA
fold depletion of shRNA [1]: 0.639

CAAACTTCAGAAATGAAATCC
fold depletion of shRNA [1]: 0.858

CAAACTTCATCAAGAGTAAAT
fold depletion of shRNA [1]: 0.737

CAAACTTTTTTTGTAACTCTA
fold depletion of shRNA [1]: 0.807

CAAAGACCCCAACGAGAAGCG
fold depletion of shRNA [2]: 0.771
fold depletion of shRNA [1]: 0.881

CAAAGACCTTTGCACAGTTTA
fold depletion of shRNA [1]: 4.6

CAAAGATGATAAAATAGATTC
fold depletion of shRNA [1]: 1.19

CAAAGCCCATTTTTCTTCCAA
fold depletion of shRNA [1]: 0.912

CAAAGGAGGCCACCACCACCA
fold depletion of shRNA [2]: 0.818

CAAAGTATACTTCCGGGGTCA
fold depletion of shRNA [2]: 1.77

CAAATAGGAGTGTATGCAGAG
fold depletion of shRNA [1]: 2.02

CAAATGCAGAAGATGTAGATT
fold depletion of shRNA [1]: 0.567

CAAATGGAGGAATATGACGGA
fold depletion of shRNA [2]: 3.14

CAAATGGCAGCTTATACATAG
fold depletion of shRNA [1]: 1.54

CAAATGTCTATCCACAGGCTA
fold depletion of shRNA [1]: 2.13

CAAATGTGAACATGGAATCAT
fold depletion of shRNA [1]: 0.913

CAAATTCAGTTCTGAGTATAT
fold depletion of shRNA [1]: 0.651

CAACAAATTCAGTTCTGAGTA
fold depletion of shRNA [1]: 1.08

CAACACCAAGTGCAAAGAGGA
fold depletion of shRNA [1]: 1.21

CAACAGCCACAACGTCTATAT
fold depletion of shRNA [2]: 2.44
fold depletion of shRNA [1]: 1.55

CAACATATTTGTAGATTTTTA
fold depletion of shRNA [1]: 1.16

CAACATCCTGGGGCACAAGCT
fold depletion of shRNA [2]: 3.28
fold depletion of shRNA [1]: 1.72

CAACATCGAGGACGGCGGCGT
fold depletion of shRNA [2]: 1.22
fold depletion of shRNA [1]: 0.797

CAACCACTACCTGAGCTACCA
fold depletion of shRNA [2]: 5
fold depletion of shRNA [1]: 2.17

CAACCTCTGTGCCCAGAAGGC
fold depletion of shRNA [2]: 5.19

CAACCTGCCCCTGAGCCACAA
fold depletion of shRNA [2]: 1.31

CAACGAGAAGCGCGATCACAT
fold depletion of shRNA [2]: 0.644
fold depletion of shRNA [1]: 0.812

CAACGTATCTGAGCTCTCTCT
fold depletion of shRNA [2]: 1.81

CAACGTCTATATCACCGCCGA
fold depletion of shRNA [2]: 1.86
fold depletion of shRNA [1]: 1.09

CAACTACAACAGCCACAACGT
fold depletion of shRNA [2]: 2.56
fold depletion of shRNA [1]: 2.33

CAACTACAAGACCCGCGCCGA
fold depletion of shRNA [2]: 1.24
fold depletion of shRNA [1]: 1.38

CAACTCAAGGTCCATGCCTCT
fold depletion of shRNA [2]: 1.45

CAACTCACCTAATGTTTATGA
fold depletion of shRNA [2]: 1.3

CAACTCCAAGGGATTGGAATT
fold depletion of shRNA [1]: 0.812

CAACTCTAATAGTGCTTAAAA
fold depletion of shRNA [2]: 0.456

CAACTGCTTCGTAATTGGCAT
fold depletion of shRNA [1]: 0.902

CAACTTCAAGATCCGCCACAA
fold depletion of shRNA [2]: 2.79
fold depletion of shRNA [1]: 1.45

CAACTTCATGGAAAGAAAGAA
fold depletion of shRNA [1]: 0.51

CAACTTTAAATCCTGAAACAG
fold depletion of shRNA [1]: 0.579

CAAGAAGGGAAGGAGTACACA
fold depletion of shRNA [1]: 0.955

CAAGAATGACAATGTCCAAGA
fold depletion of shRNA [1]: 1.22

CAAGACACAGCAGAACAGAAA
fold depletion of shRNA [1]: 1.26

CAAGACCCGCGCCGAGGTGAA
fold depletion of shRNA [2]: 0.564
fold depletion of shRNA [1]: 0.905

CAAGACTGCCCTTAGAAATTC
fold depletion of shRNA [1]: 3.85

CAAGAGAGATGTTTTGGGGAC
fold depletion of shRNA [2]: 1.15

CAAGAGTAAATGCAGTGGCAT
fold depletion of shRNA [1]: 1.44

CAAGATCCGCCACAACATCGA
fold depletion of shRNA [2]: 1.08

CAAGCAGAAGAACGGCATCAA
fold depletion of shRNA [2]: 1.23
fold depletion of shRNA [1]: 1.44

CAAGCTGACCCTGAAGCTGAT
fold depletion of shRNA [2]: 2.06
fold depletion of shRNA [1]: 1.41

CAAGCTGCCCGTGCCCTGGCC
fold depletion of shRNA [2]: 0.537
fold depletion of shRNA [1]: 0.552
